Assay results reported in paper PMC2884976 (The Journal of General Virology, 2007).
No constants are given. Whether binding was seen depends on the method and setting. In cells and extracts the contact can be indirect. Some results given as binding are weak or reduced against the parent protein; the word gives no strength.

Amino acid sequences for entries named in this document (tags omitted).
UniProt P03466: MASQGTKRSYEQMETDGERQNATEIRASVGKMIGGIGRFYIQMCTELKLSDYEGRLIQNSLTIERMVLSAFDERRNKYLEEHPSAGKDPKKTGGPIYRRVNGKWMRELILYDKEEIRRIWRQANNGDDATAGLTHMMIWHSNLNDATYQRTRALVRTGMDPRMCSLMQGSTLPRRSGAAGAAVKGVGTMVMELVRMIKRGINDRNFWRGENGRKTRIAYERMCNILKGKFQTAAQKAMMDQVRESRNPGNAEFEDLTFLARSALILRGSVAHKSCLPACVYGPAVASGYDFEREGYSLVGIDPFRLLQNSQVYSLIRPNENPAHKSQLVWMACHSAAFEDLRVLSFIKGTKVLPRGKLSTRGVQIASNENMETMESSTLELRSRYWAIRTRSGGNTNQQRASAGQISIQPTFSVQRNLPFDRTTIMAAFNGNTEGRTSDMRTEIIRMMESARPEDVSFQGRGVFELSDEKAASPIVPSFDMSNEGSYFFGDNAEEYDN

Assays:
Experiment in all cases: pull-down; only the target purified
[1] = target: full-length GST–M1 fusion protein (influenza A virus A/PR/8/34 (PR8)) (UniProt P03485)
[2] = target: GST–M1 N+M domain fusion protein (influenza A virus A/PR/8/34 (PR8)) (UniProt P03485)
[3] = target: GST–M1 middle domain fusion protein (influenza A virus A/PR/8/34 (PR8)) (UniProt P03485)
[4] = target: GST–M1 M+C domain fusion protein (influenza A virus A/PR/8/34 (PR8)) (UniProt P03485)
[5] = target: GST–NP fusion protein (influenza A virus A/PR/8/34 (PR8)) (UniProt P03466)

| Substance | binding [5] | other results |
| --- | --- | --- |
| [35S]methionine-radiolabelled, in vitro-translated NP (from UniProt P03466 1-498) | – | binding [1]: binds; binding [2]: binds; binding [3]: binds; binding [4]: binds |
| in vitro-translated M1 M+C fragment (from UniProt P03485 88-252) (domain or fragment) | binds | – |
| in vitro-translated M1 N domain (from UniProt P03485 1-75) (domain or fragment) | no binding | – |
| in vitro-translated M1 N+L polypeptide (from UniProt P03485 1-90) (domain or fragment) | no binding | – |
| in vitro-translated M1 middle domain (from UniProt P03485 88-165) (domain or fragment) | binds | – |
| untagged WT radiolabelled M1, in vitro translated (from UniProt P03485 1-252) | binds | – |
